The source of these data is PubChem BioAssay AID488969 (Vanderbilt High Throughput Screening Facility, 2010).

Molecules are shown by their SMILES. Whole data set: some 110,000 compounds, median “z-score” near -0.1, cut for the highest 2% near 2. The list shows a part of the results. Calls of active or inactive are those of the source.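 How the source made its calls: active means z-score in the third read window above 3 or below -3; inactive means the rest.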

The experiment concerns the target Metabotropic glutamate receptor 8 (Rattus norvegicus) (UniProt P70579). The experiment is described as follows: rat mGluR8 modulators via GIRK flux, primary screen, cell-based, thallium flux, HTS (AID 488969). The following applies: HEK293 rat mGluR8, GIRK (G protein-gated inwardly rectifying potassium channel) thallium flux, FluoZin2; at 10 µM; stronger effect = higher value; submaximal glutamate (EC20) added with thallium.
Sequence of UniProt P70579 (P70579 whole entry, looked up): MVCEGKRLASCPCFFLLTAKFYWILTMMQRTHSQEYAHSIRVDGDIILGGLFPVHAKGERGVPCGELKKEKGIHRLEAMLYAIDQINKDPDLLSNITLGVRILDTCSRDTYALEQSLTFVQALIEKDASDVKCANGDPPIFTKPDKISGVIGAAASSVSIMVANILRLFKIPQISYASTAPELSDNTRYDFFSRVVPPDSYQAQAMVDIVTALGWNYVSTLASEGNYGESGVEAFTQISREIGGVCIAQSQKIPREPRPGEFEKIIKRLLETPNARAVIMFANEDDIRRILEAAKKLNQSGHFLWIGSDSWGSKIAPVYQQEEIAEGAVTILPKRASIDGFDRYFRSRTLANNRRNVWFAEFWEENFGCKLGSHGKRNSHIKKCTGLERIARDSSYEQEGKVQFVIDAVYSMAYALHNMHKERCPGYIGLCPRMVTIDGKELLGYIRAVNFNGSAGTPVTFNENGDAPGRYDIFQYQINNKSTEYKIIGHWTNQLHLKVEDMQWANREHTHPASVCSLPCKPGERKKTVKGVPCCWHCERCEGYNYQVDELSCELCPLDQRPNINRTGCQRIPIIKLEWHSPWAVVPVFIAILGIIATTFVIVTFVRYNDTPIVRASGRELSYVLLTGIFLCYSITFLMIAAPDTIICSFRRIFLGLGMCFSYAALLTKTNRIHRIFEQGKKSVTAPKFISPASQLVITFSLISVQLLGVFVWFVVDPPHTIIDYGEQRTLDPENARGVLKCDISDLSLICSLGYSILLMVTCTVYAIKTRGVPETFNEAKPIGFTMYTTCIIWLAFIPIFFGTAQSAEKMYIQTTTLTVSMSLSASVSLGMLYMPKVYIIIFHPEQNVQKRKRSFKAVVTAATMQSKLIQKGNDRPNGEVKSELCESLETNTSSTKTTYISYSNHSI
As for `CC(=O)Nc1ccccc1-c1nc2ccc(C(=O)N3CCN(c4cc(C)ccc4C)CC3)cc2[nH]c1=O`, the z-score was -0.169.

Take `Cc1ccc(C(=O)Nc2oc(-c3ccccc3)cc2C#N)cc1`: the z-score was found to be 0.866.

Regarding `CC(=O)c1sc(N/N=C\c2ccc(Br)cc2)nc1C`, the z-score was -0.109.

In the case of `O=C(Nc1ccc(Cl)cn1)c1cccnc1`, the z-score was found to be 0.384.

On to `Cc1ccc(-n2[nH]c(C)c(C=Nc3ccc(S(=O)(=O)N4CCOCC4)cc3)c2=O)c(C)c1`, for which the z-score was -0.374.

`CCN1C=C(Cc2ccccc2C)C2=C(C1)C(c1ccccc1C)C(C#N)=C(N)O2` (configuration not stated): the z-score was -0.307.

In turn, `O=C(N/N=C/c1ccc(Cl)c([N+](=O)[O-])c1)c1cnccn1` gave a z-score of 0.9.

Take `COc1ccc(/C(C)=N/NC(=O)c2cc(-c3cccnc3)nc3ccccc23)cc1`: the z-score is -0.0991.

In turn, `CCS(=O)(=O)n1nc(-c2ccc(C)cc2)nc1N` showed a z-score of 0.216.

For `O=C1NCCN1Cc1cccc(Cl)c1`, the z-score is -0.251.

`Cc1ccc2[nH]c(=O)c(CN(Cc3cccs3)S(=O)(=O)c3ccc4c(c3)OCCO4)cc2c1` registered a z-score of 0.0485.

Molecule `COc1cc(SC)ccc1C(=O)N(C)Cc1ccccc1` showed a z-score of 0.253.

In turn, `CC(=O)Nc1ccc(NC(=O)N2CCCCC2)cc1` gave a z-score of -0.396.

With `CC(=O)Nc1ccc(S(=O)(=O)N/N=C/c2ccc(C)s2)cc1`, the z-score was found to be 0.93.

In the case of `Cc1sccc1C1C(C#N)=C(N)SC(N)=C1C#N`, the z-score is active: -4.47.

The molecule `CN1CCN(C(=O)C2(NC(=O)Nc3ccccc3Cl)CCCCC2)CC1` yielded a z-score of 0.259.

For `O=C(Cc1ccc(-c2ccccc2)cc1)NC(c1ccccc1)c1ccccc1`, the z-score worked out at 0.0168.

For the molecule `COc1cccc(NC(=O)Cc2nnc(SCC(=O)c3ccccc3)n2C)c1`, the z-score is -0.61.

`Cc1ccc(NC(=O)NC2C(NC(=O)Nc3ccc(C)cc3)N(C)C(=O)N2C)cc1` (configuration not stated): the z-score is -0.353.

On to `O=C(N/N=C/c1ccc([N+](=O)[O-])s1)c1ccncc1`, for which the z-score is -0.428.

In turn, `CSc1ccc(S(=O)(=O)Nc2cccc(F)c2)cc1` returned a z-score of 0.586.

`CCc1nc2ccccc2c2nc3ccccc3n12` displayed a z-score of -0.494.

`Cc1noc(NS(=O)(=O)c2ccc(NC(=O)C34CC5CC(C3)CC(n3cnc(Cl)n3)(C5)C4)cc2)c1C` had a z-score of 0.429.

The molecule `O=C(NCCCN1CCOCC1)[C@@H]1CSC2c3ccccc3C(=O)N21` (some centres not stated) displayed a z-score of 0.157.

In turn, `CC1CCCCN1S(=O)(=O)c1cnc(Cl)c(Br)c1` (configuration not stated) showed a z-score of -0.124.

In turn, `Cc1occc1C(=O)NCc1cccs1` had a z-score of -0.645.

Molecule `CC(C)NCC(=O)NC12CC3CC(CC(C3)C1)C2` yielded a z-score of 0.285.

Molecule `COCCCNc1oc(-c2ccccc2OC)nc1C#N` had a z-score of 1.64.

In turn, `Cn1c(CN2CCOCC2)nc2cc(NC(=O)c3ccccc3Cl)ccc21` displayed a z-score of -0.169.

For the molecule `O=C(CC1SC(=O)N(Cc2ccccc2)C1=O)Nc1nccs1` (configuration not stated), the z-score was -0.116.

In the case of `CC(C)N1C(=O)/C(=C/c2nc3ccccc3c(=O)n2-c2ccccc2)c2ccccc21`, the z-score is -0.518.

For `Cc1ccccc1C(=O)O/N=C(\N)c1cccc([N+](=O)[O-])c1`, the z-score was -0.117.

`O=[N+]([O-])c1ccccc1N/N=C/c1cc2ccccc2nc1Cl` showed a z-score of -0.459.

`Cc1ccccc1-n1c(C)nnc1SCC(=O)N1CCc2ccccc2C1` yielded a z-score of 0.175.

For `COc1ccc(CNC(=O)COC(=O)C2CCN(S(=O)(=O)c3ccccc3C(F)(F)F)CC2)cc1`, the z-score was -0.727.

The molecule `Cc1ccc(C2=NN(C(=O)CCl)C(c3cccs3)C2)o1` (configuration not stated) gave a z-score of -0.392.

Consider `CCN(C(=O)COC(=O)c1c(-c2ccccc2)noc1C)C1CCS(=O)(=O)C1` (configuration not stated), for which the z-score was 0.0658.

The molecule `CC(C)NC(=O)C(Sc1ccccc1)c1ccccc1` (configuration not stated) had a z-score of -0.154.

Molecule `C=CCNC(=O)c1onc(CSc2cccc3ccccc23)c1C(=O)O` registered a z-score of -0.174.

`CN(C)c1ccc(CNC23CN4CN(CN(C4)C2)C3)cc1` registered a z-score of 0.628.

In turn, `COc1cc(/C=C/C(=O)OCC(=O)N2CCN(S(=O)(=O)c3ccc(C)cc3C)CC2)ccc1O` showed a z-score of 0.565.

The molecule `CCOC(=O)N1CC=C2C(C#N)=C(N)C(C#N)(C#N)[C@H](c3cccs3)C2C1` (some centres not stated) came in with a z-score of -0.232.

`Cc1nn(C)c(=O)n1-c1ccc(Oc2ccccc2)cc1` returned a z-score of 0.233.

Take `O=C1c2ccccc2C(O)N1Cc1ccc2c(c1)OCO2` (configuration not stated): the z-score was -0.579.

For the molecule `Cc1sc2ncnc(SCC(=O)NC3CC3)c2c1C`, the z-score is 0.845.

On to `COC1CCCCC1Nc1cccc(SC)c1` (configuration not stated), for which the z-score is -0.00833.

In the case of `COC(=O)c1ccc(-n2nnnc2SC)cc1`, the z-score stood at 0.0382.

As to `CCC(=O)c1ccc(OCC(O)CN2CCN(C(c3ccccc3)c3ccccc3)CC2)cc1` (configuration not stated), the z-score came to 0.0265.

As for `Cc1ccc(NC(=O)C2CCN(S(=O)(=O)c3cccc4cccnc34)CC2)nc1`, the z-score was -0.689.

Consider `CC1(C)N=C(N)N=C(N)N1c1ccc(C(=O)O)cc1`, for which the z-score was -0.0416.

For `CCCC(=O)Nc1ccc(C(=O)NNC(=O)c2ccccc2Br)cc1`, the z-score was -0.141.

Take `CSc1ccc(C(=S)N2CCN(Cc3ccccc3)CC2)cc1`: the z-score was -0.199.

In the case of `Cc1cc([N+](=O)[O-])nn1Cc1ccc(C(=O)N/N=C/c2ccc(O)cc2O)cc1`, the z-score was -0.206.

Regarding `Cc1ccccc1-n1nc2c(c1NC(=O)c1cccc(F)c1)CS(=O)C2` (configuration not stated), the z-score was -0.112.

For `Fc1cccc(Cl)c1Cn1nnc(-c2ccc(N3CCOCC3)cc2)n1`, the z-score stood at 0.136.

`COc1ccc(C2C(C#N)=C(N)SC(N)=C2C#N)cc1OC` showed a z-score of -0.738.

On to `O=C(NC1CCCC1)C1c2ccccc2C(=O)N1C1CCCCC1` (configuration not stated), for which the z-score is -0.386.

`Nc1nc(CN2CCN(c3ccccc3F)CC2)nc(Nc2ccc3c(c2)OCCO3)n1` came in with a z-score of -0.425.

`O=C(CCc1ccccc1)NNC(=O)c1ccccc1C(=O)O` showed a z-score of -0.053.

Regarding `CC1CCCC(NC(=O)COC(=O)c2ccc(N(C)C)cc2)C1C` (configuration not stated), the z-score was -0.327.

With `CCNc1nc(NCC)nc(Oc2ccc(N)cc2)n1`, the z-score was -0.231.

Molecule `CCc1nc(Nc2ccc(OC)c(OC)c2)c2nnn(Cc3ccccc3Cl)c2n1` displayed a z-score of 0.049.

`COc1ccccc1NC(=O)CC1C(=O)NCCN1C(=O)Nc1ccccc1` (configuration not stated) registered a z-score of -0.0489.

Molecule `CC(C)(C)NC(=O)COC(=O)c1cncc(Br)c1` returned a z-score of -0.128.

On to `COC(=O)c1[nH]c2ccc(C)cc2c1NC(=O)C1=COCCO1`, for which the z-score is -0.0549.

In turn, `CC(C)C1Cc2c(sc(NC(=S)NC(=O)c3ccccc3)c2C#N)CO1` (configuration not stated) registered a z-score of -0.13.

With `C=CCO/N=C/C1C(=O)CC(C)(C)CC1=O`, the z-score was 0.0439.

`Cc1ccc(Cl)cc1N1CCN(S(=O)(=O)c2cnc[nH]2)CC1` showed a z-score of -0.301.

`Cc1cc(C)nc(SCc2nnc(SCC(=O)N3CCOCC3)o2)n1`: the z-score was determined as 0.157.

The molecule `COc1ccc(CNC(=O)C/C(C)=N/NC(=O)Cc2ccc(OC)cc2)cc1` gave a z-score of -0.368.

For `CC1CCN(CCOc2cc(Cl)ccc2Cl)CC1`, the z-score was 0.0687.

Molecule `Clc1ccc(SCc2cn3ccsc3n2)cc1` came in with a z-score of -0.476.
